Reference: PubChem BioAssay AID624255 (Broad Institute, 2012)
Out of some 77,000 compounds screened, about 4,600 (6%) were called active. This list was built around the results that the source calls inconclusive (neither active nor inactive); the mix of calls is not that of the screen.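 How the source made its calls: active means mean inhibition above about 93%, with at least 55% of replicates each passing it (limit read from the data, passing the limit was not always enough); inconclusive means only one of those two conditions holds; inactive means neither condition holds.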

Assay: T. cruzi intracellular proliferation inhibitors, primary screen, cell-based, beta-gal Tulahuen parasites, NIH3T3 host, luminescence (AID 624255)
Conditions: T. cruzi beta-gal in NIH3T3, GalScreen luminescence, 90 h; at 8.34 µM; hits give high values

Question: With `CO[C@H](CN(C)Cc1cc(F)ccc1F)[C@@H](C)CN(C(=O)Nc1ccc(F)cc1)[C@@H](C)CO` as the compound, how does the inhibition read?
Answer: inactive: -19.8%

Question: For `C[C@H]1CCCCO[C@H](CN(C)C(=O)Nc2ccc(F)cc2)[C@@H](C)CN([C@@H](C)CO)C(=O)c2cc(NC(=O)Nc3ccccc3)ccc2O1`, which inhibition is on record?
Answer: inconclusive: 118%

Question: For `CCCC#Cc1ccc([C@@H]2[C@@H](CO)N3CCCCN(Cc4cccnc4)C[C@H]23)cc1`, which inhibition is on record?
Answer: inconclusive: 99.8%

Question: Which inhibition does the source give for `CCC(=O)NC[C@H]1[C@H](c2ccc(C3=CCCC3)cc2)[C@@H](CO)N1C(C)=O` here?
Answer: inactive: 76.4%

Question: For `COc1cccc(C#Cc2ccc3c(c2)O[C@@H](CN(C)C(=O)c2ccccn2)[C@H](C)CN([C@@H](C)CO)S3(=O)=O)c1`, which inhibition is on record?
Answer: inconclusive: 110%

Question: For `O=C(NC1CCCC1)N1CCCCN2[C@H](CO)[C@H](c3ccc(-c4ccccc4)cc3)[C@H]2C1`, which inhibition is on record?
Answer: active: 104%

Question: With `CC(=O)N(C)C[C@@H]1Oc2cc(C#Cc3ccccn3)ccc2S(=O)(=O)N([C@H](C)CO)C[C@@H]1C` as the compound, how does the inhibition read?
Answer: inactive: -8.13%

Question: Which inhibition does the source give for `COc1ccc(-c2ccc3c(c2)[C@@H]2[C@@H](CCN2C(=O)c2cnccn2)[C@H](CO)N3)cc1` here?
Answer: inconclusive: 98.6%

Question: Which inhibition does the source give for `C[C@H](CO)N1C[C@H](C)[C@@H](CN(C)C(=O)Nc2ccc(C(F)(F)F)cc2)Oc2c(NC(=O)c3nc4ccccc4s3)cccc2C1=O` here?
Answer: active: 91.5%

Question: With `Cc1ccc(S(=O)(=O)Nc2ccc3c(c2)C(=O)N([C@@H](C)CO)C[C@@H](C)[C@@H](CN(C)Cc2ccc4c(c2)OCO4)OCCCC[C@H](C)O3)cc1` as the compound, how does the inhibition read?
Answer: inconclusive: 96.4%

Question: For `C[C@H]1CN([C@@H](C)CO)S(=O)(=O)c2ccc(-c3ccc(F)cc3)cc2O[C@H]1CN(C)C(=O)Nc1ccccc1F`, which inhibition is on record?
Answer: inconclusive: 72.1%

Question: Which inhibition does the source give for `C[C@@H]1CN([C@H](C)CO)C(=O)c2cc(NS(=O)(=O)c3ccc(F)cc3)ccc2O[C@@H](C)CCCCO[C@H]1CN(C)S(=O)(=O)c1ccc(Cl)cc1` here?
Answer: inconclusive: 113%

Question: Which inhibition does the source give for `C[C@H](CO)N1C[C@H](C)[C@H](CN(C)Cc2ccccc2)Oc2ncc(C#CC3(O)CCCC3)cc2C1=O` here?
Answer: active: 102%

Question: Which inhibition does the source give for `Cc1cccc(-c2ccc([C@H]3[C@@H](CO)N4CCCCN(C(=O)c5ccncc5)C[C@H]34)cc2)c1` here?
Answer: inconclusive: 96.1%

Question: For `N#C[C@@H]1[C@H](c2ccc(C3=CCCCC3)cc2)[C@H](CO)N1C(=O)c1cccc(F)c1`, which inhibition is on record?
Answer: inconclusive: 96.1%

Question: For `C[C@H]1CN([C@@H](C)CO)C(=O)Cc2cc(NC(=O)Cc3ccccc3)ccc2O[C@H]1CN(C)Cc1ccc(Cl)c(Cl)c1`, which inhibition is on record?
Answer: inconclusive: 96%

Question: Which inhibition does the source give for `CO[C@@H]1CN(C)C(=O)c2cc(NC(=O)c3cccc(F)c3)ccc2OC[C@H](C)N(C(C)=O)C[C@H]1C` here?
Answer: inactive: 44.3%

Question: Which inhibition does the source give for `C/C=C/c1ccc([C@H]2[C@H](CO)N[C@@H]2CN(CC)C(=O)c2cccnc2)cc1` here?
Answer: inactive: -24.1%

Question: For `COc1cccc(S(=O)(=O)N2C[C@@H](O)COC[C@@H]3O[C@@H](CC(=O)NCCCN4CCOCC4)CC[C@H]32)c1`, which inhibition is on record?
Answer: inactive: -51%

Question: With `C[C@@H]1CN([C@@H](C)CO)C(=O)c2cc(NC(=O)Nc3ccccc3)ccc2O[C@@H](C)CCCCO[C@@H]1CN(C)CC1CCCCC1` as the compound, how does the inhibition read?
Answer: inconclusive: 102%

Question: Which inhibition does the source give for `C[C@@H]1CN([C@@H](C)CO)C(=O)c2c(c3ccccc3n2C)-c2ccccc2CO[C@H]1CN(C)S(=O)(=O)c1ccsc1` here?
Answer: inconclusive: 104%

Question: For `COc1ccc(CN2C[C@@H](O)COC[C@H]3O[C@H](CC(=O)NCc4ccccc4Cl)CC[C@@H]32)cc1`, which inhibition is on record?
Answer: inactive: 64.6%

Question: With `Cc1ccccc1S(=O)(=O)N(C)C[C@H]1OCc2ccccc2-c2c(n(C)c3ccccc23)C(=O)N([C@@H](C)CO)C[C@@H]1C` as the compound, how does the inhibition read?
Answer: inconclusive: 95.9%

Question: With `CCC(=O)N1CC[C@H]2[C@@H]1c1cc(-c3ccc(F)cc3)ccc1N(C)[C@H]2CO` as the compound, how does the inhibition read?
Answer: inconclusive: 95.8%

Question: With `CCCN(C)C[C@@H]1Oc2cc(C#Cc3cccc(F)c3)ccc2S(=O)(=O)N([C@H](C)CO)C[C@@H]1C` as the compound, how does the inhibition read?
Answer: active: 108%

Question: Which inhibition does the source give for `O=C(C[C@H]1CC[C@H](NC(=O)Nc2ccc(C(F)(F)F)cc2)[C@H](CO)O1)NCc1ccccn1` here?
Answer: inactive: 5.68%

Question: For `C/C=C/c1ccc([C@@H]2[C@H]3CN(S(=O)(=O)c4ccc(OC)cc4)CCCCN3[C@H]2CO)cc1`, which inhibition is on record?
Answer: inconclusive: 95.1%

Question: With `O=C(Cc1ccccc1)N1CC[C@@H]2[C@H]1c1cc(-c3ccccc3F)ccc1N[C@@H]2CO` as the compound, how does the inhibition read?
Answer: active: 113%

Question: With `C[C@@H]1CN([C@@H](C)CO)C(=O)c2cccc(NC(=O)NC3CCCCC3)c2O[C@@H]1CN(C)Cc1ccccc1` as the compound, how does the inhibition read?
Answer: inactive: -96.7%

Question: With `CN(C)CC#Cc1ccc([C@H]2[C@H]3CN(C(=O)c4ccc5c(c4)OCO5)CCCCN3[C@H]2CO)cc1` as the compound, how does the inhibition read?
Answer: inactive: 61.6%

Question: For `COc1ccc(S(=O)(=O)N(C)C[C@H]2OCCCC[C@@H](C)Oc3ccc(NS(=O)(=O)c4ccccc4)cc3C(=O)N([C@@H](C)CO)C[C@H]2C)cc1`, which inhibition is on record?
Answer: active: 107%

Question: With `C[C@@H]1CN([C@H](C)CO)C(=O)c2cccc(NC(=O)CCCCCC(=O)Nc3ccccc3N)c2O[C@H]1CN(C)Cc1ccc(-c2ccccc2)cc1` as the compound, how does the inhibition read?
Answer: inconclusive: 121%

Question: Which inhibition does the source give for `Cc1noc(C)c1C(=O)N(C)C[C@H]1OCc2ccccc2-c2ccccc2C(=O)N([C@H](C)CO)C[C@H]1C` here?
Answer: inconclusive: 98.8%

Question: With `C[C@H](CO)N1C[C@H](C)[C@H](CN(C)Cc2ccc(-c3ccccc3)cc2)Oc2ccc(NC(=O)Nc3ccc(F)cc3)cc2CC1=O` as the compound, how does the inhibition read?
Answer: active: 100%

Question: Which inhibition does the source give for `CCN1[C@@H]2c3ccc(-c4cccc(F)c4)c(=O)n3C[C@@H]2[C@@H](CO)[C@@H]1C(=O)N[C@@H](C)c1ccccc1` here?
Answer: active: 102%

Question: Which inhibition does the source give for `Cc1ccc(S(=O)(=O)N2CC[C@@H]3[C@@H](CO)Nc4ccc(-c5ccccc5F)cc4[C@@H]32)cc1` here?
Answer: active: 116%

Question: Which inhibition does the source give for `C[C@@H]1CCCCO[C@@H](CN(C)S(=O)(=O)c2ccc(Cl)cc2)[C@H](C)CN([C@H](C)CO)C(=O)c2cc(NS(=O)(=O)c3cccs3)ccc2O1` here?
Answer: inconclusive: 100%

Question: With `C[C@@H]1CN([C@H](C)CO)C(=O)c2cc(-c3cncnc3)cnc2O[C@H]1CN(C)C(=O)Nc1ccc2c(c1)OCO2` as the compound, how does the inhibition read?
Answer: inconclusive: 97.5%
